Data as given in the BET-seq Pho4 binding data (Le et al. 2018).
The list shows a part of the results. These are noisy estimates, calculated here from bound and input reads.

Biological target: T1, Pho4 (S. cerevisiae) (UniProt P07270)
T1 sequence: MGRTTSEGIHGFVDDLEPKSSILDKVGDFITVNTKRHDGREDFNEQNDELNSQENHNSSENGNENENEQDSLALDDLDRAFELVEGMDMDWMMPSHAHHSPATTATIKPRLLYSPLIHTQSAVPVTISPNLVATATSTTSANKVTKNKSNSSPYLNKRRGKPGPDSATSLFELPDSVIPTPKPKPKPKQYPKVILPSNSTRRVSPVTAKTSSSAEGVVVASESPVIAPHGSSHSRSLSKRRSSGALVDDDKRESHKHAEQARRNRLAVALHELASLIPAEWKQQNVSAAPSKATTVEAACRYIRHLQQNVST
Test: relative binding free energy (BET-seq); higher = weaker binding
Settings: reference: library average

| Sequence | relative binding free energy [kcal/mol] |
| --- | --- |
| GTGCGCACGTGAGTTG | 0.11 |
| GTAGACACGTGCGTGT | -0.11 |
| AATTGCACGTGGTCTG | -0.1 |
| AATGGCACGTGGAAGT | 0.01 |
| AGGATCACGTGAAAGG | 0.32 |
| ATGTTCACGTGTCCGG | 0.35 |
| TGGTACACGTGGCTGG | 0 |
| GCGGTCACGTGGTATA | 0.03 |
| GTTGGCACGTGAAGAT | 0.19 |
| AAGGTCACGTGCTTGG | 0.23 |
| ATAGGCACGTGATTCG | 0 |
| TGATGCACGTGGAGGG | -0.14 |
| ATTGACACGTGGCATG | -0.09 |
| AGTGGCACGTGACAGG | -0.14 |
| GTGTTCACGTGAAATA | 0.54 |
| CTATGCACGTGGCGTT | -0.06 |
| TATGGCACGTGGGTCG | -0.2 |
| TGGCGCACGTGGGTGA | -0.19 |
| TGGAGCACGTGTTTAG | -0.13 |
| TCAATCACGTGTGTTG | 0.19 |
| AGGTGCACGTGGACAG | -0.07 |
| GGAGGCACGTGGTTTT | -0.12 |
| GTAGTCACGTGTAGAG | 0.39 |

| Sequence | relative binding free energy [kcal/mol] |
| --- | --- |
| TATAGCACGTGTGACT | 0.04 |
| GTATGCACGTGGGTTA | -0.16 |
| GTTGCCACGTGGAGGG | 0 |
| TATAGCACGTGAGCGG | 0.1 |
| TGGGGCACGTGGAAGC | -0.01 |
| TGGAACACGTGGGACG | -0.08 |
| AGCGTCACGTGCTGTG | -0.03 |
| TGAATCACGTGGACTT | 0.3 |
| GGTCCCACGTGTGGGG | -0.02 |
| ATTAGCACGTGTACAT | 0.11 |
| CGTAGCACGTGGGAAG | -0.03 |
| TGTAGCACGTGACGGG | 0.14 |
| ACAGACACGTGGGGCG | -0.01 |
| TTCTGCACGTGAAGTA | 0.19 |
| TTCGTCACGTGGGCGG | -0.1 |
| GGCGGCACGTGGATGG | -0.07 |
| AATGACACGTGTGGTT | 0.09 |
| GCGGGCACGTGATTTA | 0.15 |
| GTTTTCACGTGTGAAT | 0.43 |
| GGTGTCACGTGTGAGC | 0.21 |
| CGGGGCACGTGATAAG | -0.02 |
| TTTAACACGTGGGCTG | -0.18 |
| GTGCTCACGTGTTTGA | 0.34 |

| Sequence | relative binding free energy [kcal/mol] |
| --- | --- |
| AGGGTCACGTGAGGAC | 0.24 |
| TCGAGCACGTGTGAGA | 0.14 |
| CCTTACACGTGTTGTT | 0.17 |
| GTGATCACGTGGGGAC | 0.04 |
| TTGGACACGTGATAGT | 0.14 |
| TTTTCCACGTGCGTTG | 0.07 |
| TGGAACACGTGGGCGT | -0.06 |
| CTGTTCACGTGGAGTT | 0.33 |
| TGGAGCACGTGGCGTG | -0.17 |
| GTGGTCACGTGTCAGC | 0.18 |
| TTATTCACGTGAGGGG | 0.33 |
| CTGTTCACGTGTTTTT | 0.15 |
| GTGTGCACGTGGCTAG | 0.01 |
| CAGGGCACGTGTTTGA | -0.08 |
| AATTTCACGTGTTCTT | 0.18 |
| GTGTGCACGTGTCTGG | -0.01 |
| AAAGTCACGTGAGGGC | 0.18 |
| TATATCACGTGTCTGT | 0.06 |
| CGTTGCACGTGAGGTG | 0.16 |
| GGATGCACGTGGTTGC | 0.07 |
| GTTGTCACGTGTGTAT | 0.28 |
| CAGTGCACGTGTTATT | -0.06 |
| TTGTACACGTGGCTTG | 0.08 |

| Sequence | relative binding free energy [kcal/mol] |
| --- | --- |
| TGTGACACGTGTGCTT | -0.01 |
| GTTTACACGTGGGATG | 0.14 |
| GGCTTCACGTGAAGTG | 0.23 |
| TTTTGCACGTGAATGC | 0.31 |
| GATGGCACGTGTTGCG | -0.12 |
| TTGATCACGTGCTGAT | 0.03 |
| GGCGGCACGTGATGTG | 0.07 |
| TATGACACGTGTTTTC | 0.01 |
| TTAGACACGTGTGATA | 0.21 |
| GGGAGCACGTGCATTT | 0.03 |
| AGGGGCACGTGACATA | 0.02 |
| ATGGGCACGTGGGGGA | -0.19 |
| GTATTCACGTGTCGTT | 0.3 |
| GGGATCACGTGCGGTT | 0.17 |
| GATGACACGTGTTGGG | 0.28 |
| TGCATCACGTGGTATT | 0.08 |
| GGATACACGTGAGATT | 0.43 |
| GGGGACACGTGGGGAA | -0.05 |
| GTGTTCACGTGATGTT | 0.36 |
| TGTAACACGTGGGCGT | -0.04 |
| GTTGACACGTGGTCCT | 0.13 |
| GGCGGCACGTGGAATT | 0.25 |
| TGGGCCACGTGGGTCG | -0.2 |

| Sequence | relative binding free energy [kcal/mol] |
| --- | --- |
| CTTGTCACGTGATTAA | 0.23 |
| GGAGTCACGTGTTAAG | 0.06 |
| AAGAGCACGTGGGAGA | -0.16 |
| TTATGCACGTGCGGTG | -0.16 |
| GAATTCACGTGAGATG | 0.49 |
| TGTAGCACGTGCTATG | -0.19 |
| TCAAGCACGTGAGTTG | 0.22 |
| TGTAGCACGTGATTGA | -0.13 |
| TATTGCACGTGCGAGT | 0.01 |
| TAGATCACGTGTGTGA | 0.08 |
| GCTATCACGTGGTGTT | 0.15 |
| AGGCACACGTGTGAGG | 0.04 |
| TAGATCACGTGAGTGA | 0.25 |
| GGCGGCACGTGCCTGG | -0.21 |
| AATGGCACGTGTTACG | -0.05 |
| ATTTGCACGTGTGGGG | 0.08 |
| GTCAGCACGTGGGGTC | -0.18 |
| AGAGGCACGTGGGTTG | -0.12 |
| GTTGACACGTGAGTCA | 0.31 |
| AATTACACGTGATGCT | 0.19 |
| AGTGGCACGTGTGGGA | -0.09 |
| TTTCGCACGTGGTCGG | -0.18 |
| GCTGACACGTGAAGGT | 0.32 |
